# Source: the supplement of paper PMC11417369
# This is one part of the list.
# Tested on: PfSIP2 AP2 domain 1 (GST-tagged)
# Assay: gcPBM binding intensity (ln(normalized median fluorescence intensity)); higher = stronger DNA binding
# How it was run: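 The highest Masliner-normalised natural-log median intensity across replicate spots of either probe orientation is reported as binding intensity. GST-tagged P. falciparum DNA-binding domains expressed in E. coli were applied for 1 h to an Agilent 4 × 180k array of primer-extended double-stranded 36-bp intergenic genomic probes plus negative controls, and bound protein was detected with Alexa488 anti-GST antibody and scanned at 488 nm.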
row,Sequence,gcPBM binding intensity (ln)
1,TACATATAATATATTGCACACGTCAGAATAATATAG [CACACA_site1744],7.28
2,TAATAGAATATGATGGTGCAGCAGTCTTATTTTTCA,9.68
3,TTTCTTTCTTCACATATATATATATATATATTTATA [TGCATGCA_negctrl_site341],7.49
4,TTAGCCATTAATTCTCTACACACCTTTATGTTATTT [CACACA_site9212],6.79
5,TTTTATAATATTTAAAGTACATTCTAAAAATATAAT [XGTACX_site8033],6.87
6,CCCCCCCACGGACACACACACATACATACCACATAT [CACACA_site5303],9.09
7,ATTTTTTTTTTTTTTTTTTTTTTTTAGATTAAGAAA [CACACA_negctrl_site1272],6.76
8,AAATAAAATAAAATAAAATAAAATTCTTTGATACCT [TGCATGCA_negctrl_site604],6.85
9,TATTCTAATTTTTAAACACACAAATATAAATAAGTA [CACACA_site3149],6.89
10,CTATTTATTATATATACATGCATATATATATTAATA [TGCATGCA_site527],7.06
11,TAAAAATGTGTATGTACACACTTTATTTTTAATACA [CACACA_site7235],6.79
12,GATAATTATGGACACACACACACACCCACAACTAAA [CACACA_site8824],7.11
13,TATTAAACGAAACACACACACACACCCATATATAAA [CACACA_site759],7.1
14,AAAAAGAATGTGAACACACACATTGAATCTAATTTA [CACACA_site6711],6.75
15,AGATGATATATTATATATCCTTTTAATAAATGTAAT [CACACA_negctrl_site730],6.72
16,ACATATAATATATATATATATATATATATATATAAT [GTGCAC_negctrl_site648],7.63
17,TATATAAAAAATTCAATACACACCATATATAAATAT [CACACA_site3987],6.98
18,TATTTTTCCATATGCACACACACCGTATATATAATA [CACACA_site1127],7.82
19,ATAACAAAATAAAACACACACACAAATGTACATATA [CACACA_site2425],7.19

row,Sequence,gcPBM binding intensity (ln)
1,CATATACACCAACACACACACACACCCACAAAAAAA [CACACA_site496],7.45
2,AAATAAATAATTTAATGTACATATATAATATATATA [XGTACX_site1831],7.23
3,CTTTTTAATAAATATACACACACAAAAAAAAAAAAA [CACACA_site9316],6.9
4,TAAATAAAGTATAATGCATGCTATTATAATATTAAT [TGCATGCA_site825],6.99
5,CACTTTATACGTAATTGTACTTTTTCTTTTTTTTAT [XGTACX_site3175],7.23
6,TATTCAAAGAAAGACAGTACGTGTAGCAAACAACCT [XGTACX_site4218],6.91
7,ACTTACTAATTAATGGGTACATACACACATATATAC [XGTACX_site1362],7.48
8,AATAAAAAAATAGAAACACACATTAAAAAAAATAAA [CACACA_site1333],6.78
9,ATGATATATAGACACACACACATATTTATATACATT [CACACA_site6404],6.97
10,ATCATTTATTTTTTAAAAGTATATATATATATATAT [CACACA_negctrl_site220],9.47
11,TTAATAAAAATATATCCACACACATATATATATATG [CACACA_site8091],7.26
12,TTTTTTTTTTTTTAAATAATCATACATGTGAAATTG [GTGCAC_negctrl_site328],6.95
13,ACATATTATAACATATGTACATATATATATATATAA [XGTACX_site5567],7.48
14,AAATATAAGTTTTATTGTACATTATATAGCATATTT [XGTACX_site6618],6.93
15,TTTTGACATTAACTTAAAAAATAAATAATTATAAAA [XGTACX_negctrl_site552],6.88
16,TATCATATAAAACATGCACACATATGTACTCTTATA [CACACA_site9249],7.62
17,AAAAAATAAGATTGTACACACATAAATTCTTTGTCA [CACACA_site2089],6.85
18,CGTTCTATTTAGATATGTACTTAAATATATGATCAT [XGTACX_site2936],7.02
19,TTATAAAACACAAAATGTACAAAAAATTATAATTAA [XGTACX_site6859],6.97

row,Sequence,gcPBM binding intensity (ln)
1,TTAAAGAATATTTTCACACATAAAAATTTTAATTTA [CACACA_site4290],6.63
2,AATATTATTATCTTACCACACACAATCTACGAAAAG [CACACA_site8006],7.08
3,TATATATATATAAGTGCACACTGAACCAAGAAAATT [CACACA_site5637],9.97
4,TATGTCTTGTTGTAAAATATTTATTAACAAATTGGC [CACACA_negctrl_site1452],7.06
5,ATTTTTATTTTCTTTACACACCACATAACTTTTTTT [CACACA_site7826],7.36
6,ATATATATATATATATGTACATATATCTACATATAT [XGTACX_site7588],9.79
7,ACTTTTTAATATTTTAGTACACAGTAATTCTTACTA [XGTACX_site1425],7.65
8,TTTAATATGAATTTATGTACATATATATATATATAT [XGTACX_site6337],9.53
9,TATATTAAAAAAAAATGTACATATATATAATATATA [XGTACX_site1935],7.37
10,AAAAAGTGATTAAAATGTACAAAATGCATAAAAGAA [XGTACX_site6625],7.8
11,GATATGTTAAATATATGTACATATATAAACCCAAAC [XGTACX_site6601],7.29
12,AAAGTAAAAAAAAAAACATGCATACGCTAATTTTTA [TGCATGCA_site301],6.7
13,ATTTTAATACTTTTATATTAAATGTAGCACATCATA [XGTACX_negctrl_site273],6.89
14,CATTTTTTGCTTTCAACACACATACAATATAAATAA [CACACA_site7858],7.27
15,TTATTTATTTAGTAGTGTACTTTTTATATTTATAAT [XGTACX_site5978],6.88
16,AAAAAAAAAAAATACACACACATATATATATATATA [CACACA_site2224],9.24
17,TATGTAATAAATAGTACACACACACCGATATATATA [CACACA_site8389],7.46
18,TATAATAATATTATAGTGCATATTATTTATATATAA [GTGCAC_site9820],8.67
